Measured values reported in paper PMC12136788.
This is one part of the list.

B1: ENSG00000248905:stop:overlap|stop_codon|ENSG00000248905|stop_codon|NA|stop_codon (ssRNA)
RNA: GGGAGUUCUACAGUCCGACGAUCAAGACACAGAAGAAAAAGUGGGACUGAAGUACACUGAAGCAGGUAAUGUGAAAGGAAGCUAGGGACCCGGGAAUGAAUCUCUUCCUGCAAUGGCUUUUAGUUCUAGCUUAGUUGACUCUCCAACAGAGGAUUGAGCAUCA
B2: chrX:51895182:51895295:+|CDS|ENSG00000179222|unk|total|mutant (ssRNA)
RNA: GGGAGUUCUACAGUCCGACGAUCAGUUCACAGCCCCCAACUGCCAAUGAGAUGGCUGACAUUCAGGUUUCAGCAGCUGCCGCCCGGCCUAAGUCAGCCUUUAAAGUCCAGAAUGCCACCACAAAAGGCCCAAAUGGUGUCUAUCAACAGAGGAUUGAGCAUCA
B3: chr10:49131153:49131612:-|three_prime_utr|ENSG00000172538|control|control|control (ssRNA)
RNA: GGGAGUUCUACAGUCCGACGAUCCUGCCCUCACCUCCAGGGCCUGGGACUGCUCCUUCCCCAGCCAGCAGUAUCAGAGCCACUAGGGCAGGGAGAGAGGACCAGGGUCAGGGGGAAGGAAAGGCAUGGAGUGUAGAGCAAGGACAACAGAGGAUUGAGCAUCA
B4: chr8:76983344:76983445:-|CDS|ENSG00000164751|msi1|FALSE|unique (ssRNA)
RNA: GGGAGUUCUACAGUCCGACGAUCAGCCACCAGUGGCAAAGAAUGCGCUCUAUGUGGAGAGUGGCCCACCAUGCCUCACACCAUAGGAUGUGAGCAUAUUUUCUGUUAUUUCUGUGCUAAGAGUAGUUUCUUAUUUGACGUGUACAACAGAGGAUUGAGCAUCA
B5: chr2:27376893:27376994:+|3pUTR|ENSG00000115234|msi1|total|mutant (ssRNA)
RNA: GGGAGUUCUACAGUCCGACGAUCGGGCUGGCUGCACAGAGGAUUGCCCCUUCUCUUUUCAGAGCUGGCCCUCGAUGCCAAAUCCGCAUUCCGUAUUUUGCACAAAGUCUAAGGGACCAUGGCUGCCUGCCUUGGGGAGGAACCCAACAGAGGAUUGAGCAUCA
B6: chr10:91841327:91841437:+|CDS|ENSG00000107854|unk|FALSE|unique (ssRNA)
RNA: GGGAGUUCUACAGUCCGACGAUCUUCUUAUGGACAUUAUGAAGUUGCAGAACUUCUUGUUAAACAUGGAGCAGUAGUUAAUGUAGCUGAUUUAUGGAAAUUUACACCUUUACAUGAAGCAGCAGCAAAAGGAAAAUAUGAAAUCAACAGAGGAUUGAGCAUCA

What follows are binders tested against MSI1 full-length (mouse, UniProt Q61474 1-362) (assay: nsRBNS (natural sequence RNA bind-n-seq); RBNS binding buffer (assumed for nsRBNS): 25 mM Tris pH 7.5, 150 mM KCl, 3 mM MgCl2, 0.01% Triton X-100, 500 ug/ml BSA, 20 U/ml SUPERase-In, 4 C; UNK is unkempt and MSI1 is Musashi-1; names of the RNAs are library labels; protein concentration not given here; high values mean tight binding).
Chain of UniProt Q61474 (Q61474 whole entry): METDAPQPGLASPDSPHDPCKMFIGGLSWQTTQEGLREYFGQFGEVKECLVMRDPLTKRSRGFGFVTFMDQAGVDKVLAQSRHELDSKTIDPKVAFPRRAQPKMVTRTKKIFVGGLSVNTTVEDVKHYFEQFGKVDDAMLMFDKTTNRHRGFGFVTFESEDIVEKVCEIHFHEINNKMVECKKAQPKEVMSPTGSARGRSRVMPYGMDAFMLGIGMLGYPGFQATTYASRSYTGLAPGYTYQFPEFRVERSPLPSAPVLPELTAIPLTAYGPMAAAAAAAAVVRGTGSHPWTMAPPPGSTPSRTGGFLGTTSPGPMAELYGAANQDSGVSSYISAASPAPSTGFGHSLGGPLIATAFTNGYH

| Binder | binding signal [enrichment R] |
| --- | --- |
| B1 | 0.365 |
| B2 | 0.527 |
| B3 | 1.65 |
| B4 | 0.859 |
| B5 | 0.375 |
| B6 | 2.34 |
